In ChEMBL document CHEMBL4888484, “Replenishing the malaria drug discovery pipeline: Screening and hit evaluation of the MMV Hit Generation Library 1 (HGL1) against asexual blood stage Plasmodium falciparum ,using a nano luciferase reporter read-out” (2022):
Screen size: about 150,000 compounds; about 540 (0.36%) showed an effect of 50% or more. The list shows a part of the results.

These compounds were tested on Plasmodium falciparum (assay: Primary screen in NF54 nanoGlo assay, in single point, at 2uM, 72h; a lower Z score goes with more inhibition). Details: timepoint 72 hour.
Type: functional, Erythrocyte
For Cc1ccc(C(=O)N[C@H]2CO[C@H]3[C@@H]2OC[C@@H]3n2nnnc2Oc2ccccc2)cc1, the “% Inhibition” value was -11% and the Z score was 1.73.
Cn1ccnc1[C@@H](NC(=O)COc1ccc(Cl)cc1Cl)C1CC1 was tested, and the “% Inhibition” value was -5% and the Z score was 0.63.
With Cc1ccn2c(NC(=O)c3csc(C(C)(C)C)n3)nnc2c1 the “% Inhibition” value was -3% and the Z score was 0.65.
In the case of Nc1c(-c2ccccc2)nnc2c(-c3ccccc3)cnn12, the “% Inhibition” value is reported as -8% and the Z score is reported as 1.1.
In the case of CCN1c2ccc(F)cc2C(=O)NC12CCN(C(=O)Cc1cccc(OC)c1)CC2, the “% Inhibition” value is reported as -4% and the Z score is reported as 0.48.
CCC(NC(=O)NCc1ncccc1F)C1CCCO1 (stereo not drawn) was tested, and the “% Inhibition” value was -6% and the Z score was 1.05.
In the case of Cc1ccc(-c2nnc(CNCCc3[nH]nc4c3CCCC4)o2)n1C, the “% Inhibition” value is reported as 4% and the Z score is reported as -0.54.
CCN1C(=O)CC(CC(=O)N2CCC[C@H]2C(=O)OC)(c2cccc(C(F)(F)F)c2)C1=O (stereo partly drawn) was tested, and the “% Inhibition” value was 1% and the Z score was -0.18.
For CCNC(=O)N(CCN1CCOCC1)CC(=O)N1CCN(c2ccc(-c3ccc(OC)c(OC)c3)nn2)CC1, the “% Inhibition” value was -12% and the Z score was 1.44.
With COc1nccc(NC(=O)N2CCOC(C(C)O)C2)n1 (stereo not drawn) the “% Inhibition” value was -8% and the Z score was 1.22.
For Cc1nc(CN2CCC(N3CCc4ccccc4C3)CC2)c[nH]1, the “% Inhibition” value was -8% and the Z score was 1.58.
CC(C)CNC(=O)c1cc2c(OCc3ccccc3)cccc2n1CC(C)C was tested, and the “% Inhibition” value was 6% and the Z score was -0.76.
C=CCNC(=O)CN1CCOC(C)(C)C1 was tested, and the “% Inhibition” value was 3% and the Z score was -0.34.
Cc1noc(C)c1CC(=O)N[C@H](c1ccc(C2CCCCC2)cc1)C(C)C was tested, and the “% Inhibition” value was -4% and the Z score was 0.73.
With CCC(C(=O)O)N1CCCC(Nc2cc(OC)cc(OC)c2)C1 (stereo not drawn) the “% Inhibition” value was 0% and the Z score was -0.01.
For Cc1cc(C)n(CC(=O)N2CCC[C@H](C(=O)c3ccc(Oc4ccccc4)cc3)C2)n1, the “% Inhibition” value was 2% and the Z score was -0.3.
With FC(F)(F)c1cnc(Nc2cnccn2)c(Cl)c1 the “% Inhibition” value was -2% and the Z score was 0.26.
In the case of COc1cc(COc2cccc(-c3cn(C)cn3)c2)cc(OC)c1, the “% Inhibition” value is reported as 0% and the Z score is reported as 0.03.
In the case of COc1ccc2c(c1)CCCN(C(=O)c1c(C)cnn1C)C2, the “% Inhibition” value is reported as -12% and the Z score is reported as 1.49.
For O=C1Cc2ccccc2N1CCNS(=O)(=O)Cc1cc(Cl)ccc1F, the “% Inhibition” value was -3% and the Z score was 0.48.
In the case of Cc1cccc(NC(=O)c2cc(N3CCCC3)ncn2)n1, the “% Inhibition” value is reported as -11% and the Z score is reported as 2.14.
With Cc1nnsc1CNC(=O)c1ccc(S(=O)(=O)NC2CC2)cc1 the “% Inhibition” value was -3% and the Z score was 0.23.
For O=C(O)[C@@H]1CCCCN1Cc1csc2ccccc12, the “% Inhibition” value was -5% and the Z score was 0.67.
NC(=O)Cc1cccc(NC(=O)N(CCC2=CCCCC2)CC2CC2)c1 was tested, and the “% Inhibition” value was -5% and the Z score was 1.
